The results in this text go back to the supplement of paper PMC11417369.

This is one part of the list.

This test concerns PF3D7_0420300 AP2 domain 1 (GST-tagged). In words: gcPBM binding intensity (ln(normalized median fluorescence intensity)); higher = stronger DNA binding. An outline of the steps:
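GST-tagged P. falciparum DNA-binding domains produced in E. coli were incubated for 1 h on an Agilent 4 × 180k array of primer-extended double-stranded 36-bp intergenic genomic probes with negative controls. Binding intensity is the highest Masliner-normalised natural-log median intensity across replicate spots of either probe orientation, with bound protein detected by Alexa488 anti-GST antibody at 488 nm.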
Consider “ATAAATAATTGTAGTTGTACATGATATTTTTATTAC [XGTACX_site550]”, for which the “gcPBM binding intensity (ln)” value was found to be 9.25.
In the case of “AAAAAAAAAAAAAACACACACACAAATACAAATACA [CACACA_site414]”, the “gcPBM binding intensity (ln)” value stood at 10.1.
Next, “AAATGGACCTAATTATCACACATTATACTCGTTTTC [CACACA_site5996]”: 9.47.
Next, “ATATATCATAATAAAAGTACTTATATATTTTATATA [XGTACX_site560]”: 9.11; “AAAATAAATAAATATACACACCATATATATATTTTT [CACACA_site5573]”: 9.57; “TTTAACGTTGAATATACACACATATATTTATTTATA [CACACA_site7695]”: 9.39.
Next, “AAAATGTACTTTTTCTAAAGAGTAATGATGCTTGAT [CACACA_negctrl_site1124]”: 9.02; “AATCCTTTAAAACACACACACAAAAAAAAAAAAAAA [CACACA_site642]”: 9.63; TATAGTAAAATTAGGGTGCTTTTGTAACAAAAAAAA: 9.23.
Take “TTATTTTCTTTCTATGCACACGCACGTATTTGCCCA [CACACA_site9104]”: the “gcPBM binding intensity (ln)” value amounted to 9.31.
The result for “TGCTTCATAAATAAAACATGCAATATAGAAATTAAA [TGCATGCA_site690]” reads 8.97; that for “AGAGTAGGAAATGGAAAAATAAAATAAATAAATAAA [XGTACX_negctrl_site69]”, 9.1.
For the sequence “AAATATATATACCACACACACATACCTCTATTTGTA [CACACA_site1854]”, the “gcPBM binding intensity (ln)” value was 10.1.
The result for “TTTTGTAAAAGGTATATATATATATATATATATATA [GTGCAC_negctrl_site734]” reads 8.9; that for “AATAAAAAAATAAAAAAAAAAAAAAATAAAAAAAAA [GTGCAC_negctrl_site12]”, 9.11.
For “CGTATTTTAATATTTACACACTTATTTTTTATATAA [CACACA_site125]”, the “gcPBM binding intensity (ln)” value amounted to 9.42.
The result for “TATAGCATATTTCACACACACATAATGAATATTATA [CACACA_site3545]” reads 9.8.
Next, “TTTATATAGAAAAATTGTACGAATTACTTTTTTATA [XGTACX_site6843]”: 8.85.
The result for “AATAAAATAATAGGCACACATATATATATATATTAT [CACACA_site273]” reads 9.63; that for “ATATATCTACATATATGTACATATATGTATATGTAT [XGTACX_site5432]”, 9.21; that for “ATATCCTACTTCTAGTGTACATATATGGACTGATGA [XGTACX_site3683]”, 9.22.
Consider “TACAATTTATGACACACACACAATAATACCTATATA [CACACA_site6704]”, for which the “gcPBM binding intensity (ln)” value amounted to 9.95.
“AAAAAAAAAAAACACACACACACACTAGTACATACA [CACACA_site4551]”: the “gcPBM binding intensity (ln)” value stood at 10.2.
Next, “TATATATATATATGTGCACACATAAAGATATTATTT [CACACA_site3734]”: 9.55; “ATGAAATATGCACAGTGTACTTTTATGAGGAACATA [XGTACX_site426]”: 9.27; “TTTTTAATACAAAAAAAATAATATGTTATATTTCAA [CACACA_negctrl_site35]”: 8.81.
Next, “TGCCCTTTGGTTATAACACACATGCACACGTAAATA [CACACA_site7750]”: 9.72; “AATTAACCGTGACACACACACATATAAATATAAATA [CACACA_site7790]”: 9.86; “GGGAATATATAAGATACACACACAAATTAAATATAA [CACACA_site8898]”: 9.87.
The result for “TATATATATATATATACACACACACCCACCAAAGCG [CACACA_site7904]” reads 9.79.
Consider “CACAAATAAATATTCACACATATATGTCTTATATAT [CACACA_site5323]”, for which the “gcPBM binding intensity (ln)” value stood at 9.29.
The result for “ATCAAATTTTTGTTATGTACACAATCATTTAATAAA [XGTACX_site810]” reads 9.12.
The result for “ATTACAATAAATTCGTGTACATGATACCGCCGCTAC [XGTACX_site8997]” reads 9.21; that for “TAATTATTATTAAATACACACACATACCTCCATGTT [CACACA_site9134]”, 9.87.
Regarding “AAAAAAAAAAAATAGGTGCGTGTTACTTTTGTATGC [GTGCAC_site9524]”, the “gcPBM binding intensity (ln)” value was 9.26.
Turning to “TATATATATATATATGTGCGCATATATTTTTTTGTA [GTGCAC_site9983]”, the “gcPBM binding intensity (ln)” value amounted to 9.27.
The result for “ACAAAATTTACAAAATGTACAAAATATACAAAATAT [XGTACX_site6465]” reads 9.19; that for CATGAGGTATAAAAGGTGCAAATTAATGAGAACATT, 9.3; that for “TTATATCAAGGGAATGCATGCATATCGTTTTGTATT [TGCATGCA_site327]”, 9.35.
“AATAATATACATATATATATTATATTGTAATTTTGT [TGCATGCA_negctrl_site1]”: the “gcPBM binding intensity (ln)” value was found to be 9.18.
Next, “ACTAGACAAAATATAATGCACACTATTATTTTTATT [CACACA_site2726]”: 9.45; “TATTCTTATATATATACACACACAAAATATCTACAA [CACACA_site8144]”: 9.82; “TTGCATTGATCAAACATACACACATGGTTAATAAAA [CACACA_site2084]”: 9.34.
The result for “TATTTCTCACTGTATGGTACAGATATAAATTTTTAT [XGTACX_site8776]” reads 9.12; that for “TAACAAGGTTTATATGCATGCAAACATAACCAAAAA [TGCATGCA_site824]”, 9.09.
Next, “AATGGGTAAACATACACACACACATCTATATTTATA [CACACA_site7025]”: 10.1.
With “CTTTGCCTTAAAAAGGAACACACATGCTTTTTTTAG [CACACA_site8219]”, the “gcPBM binding intensity (ln)” value stood at 9.22.
Next, “TACTATATCATTTATTGTACAATATTTCTTCAGAAA [XGTACX_site1008]”: 9; “TATAAAAGACTAAATATTATAGAAATATAAATATAA [TGCATGCA_negctrl_site237]”: 8.98; “ATATATATGTATAATCGTACAGTTAACGTATTCTTA [XGTACX_site5649]”: 9.26.
Turning to “AAACAGATAAATAAAAGTACACATTAAAAGGTAGCA [XGTACX_site4150]”, the “gcPBM binding intensity (ln)” value worked out at 9.7.
The result for “GGATTTTAATGAACACGTACATAAAATTAAATAAAT [XGTACX_site7023]” reads 8.98.
The result for “TAATTAATTTCTTTACGTACATAATTAATATATATA [XGTACX_site7372]” reads 9.14.
Next, “GGGAGGATAGTTCACAGTACCCAGGAAATCTACGGA [XGTACX_site2553]”: 9.1; “GGTTCATAATATGGTTGTACATAAATATATATATAT [XGTACX_site7583]”: 9.51.
Turning to “TTTATACATTTATATTGTACTAATTCGATTTTATAT [XGTACX_site5424]”, the “gcPBM binding intensity (ln)” value stood at 9.34.
The result for “AAAGAAAAAGAAAAAGAAAAATTAGAATATAAAATA [CACACA_negctrl_site792]” reads 9.12; that for “AATGATCATATATACACACACACAAAAAAAAAAAAA [CACACA_site4009]”, 10; that for “ATAAGAAATGTAACTTGTACATAAGGATATATATTT [XGTACX_site236]”, 9.26.
For “TAATAATAAAAAAATAGTACATAAATAAAAATAATA [XGTACX_site4774]”, the “gcPBM binding intensity (ln)” value turned out to be 9.48.
The result for “CATTTATATAAATACACACACACAAAAAAAAAAAAA [CACACA_site5459]” reads 9.99.
Next, “TTTTTTTTTTTAAGTTCACACATAAATTCGATTTAC [CACACA_site5057]”: 8.98; “ACCGTTTTTGTGTAATGTACAAAATTTCTGACAGTG [XGTACX_site4999]”: 9.23.
The result for “AAAGGAAAATTAAAAAGTACACATTTGAAAAAAAAA [XGTACX_site2724]” reads 9.23; that for “ATAATTTGTAAAAGGAGTACAAAACCATACTTTTTT [XGTACX_site6076]”, 9.08.
On to “ATGTATTTAATAAGAACACACATATATTTAATTTAA [CACACA_site5606]”, for which the “gcPBM binding intensity (ln)” value worked out at 9.3.
The result for “TATAAAATAAAAAATAAATATCTATATATATATATA [TGCATGCA_negctrl_site351]” reads 8.94; that for “ATAAAGCACACCGACACACACATATTTATATTTATA [CACACA_site6620]”, 9.79.
As for “TTGTGTTATCCTTTTTTAGATCAACTATTTTTATTC [CACACA_negctrl_site145]”, the “gcPBM binding intensity (ln)” value came out at 9.34.
Next, “ATTTATAAAATTAATGCACACATCAGCATTTATAAA [CACACA_site1025]”: 9.11.
Next, “TAAATACATAGATGTACACACATTACAGATGTACAT [CACACA_site4692]”: 9.49.
The result for ATTTATTTCTTGTTAGTGCACTTTCTTTGGTAAAAT reads 9.36; that for “TTAAAATGTTGTAACGTGCACATTTTGTGGAAATCA [GTGCAC_site9559]”, 9.07.
Consider “TTATAATTGTAAGGTAGTACATATAAATCAAATAAT [XGTACX_site7190]”, for which the “gcPBM binding intensity (ln)” value was 9.37.
Next, “TATACAGATGGACACACACACATATATATATATATA [CACACA_site5272]”: 9.89.
With “ATACAAACAATTATTTGTACATAAAATTTTTTTTTT [XGTACX_site90]”, the “gcPBM binding intensity (ln)” value is 9.
Next, “ATGAATCTTTTAAAAAGTACATGTGAAAAAAATAAA [XGTACX_site49]”: 9.01; TTTTTTTGTTAAAAGGTGCTAATATATATAAGTGCT: 9.03; “GTCCCTATAAGGGGAACACACATAAATGAATATATA [CACACA_site1024]”: 9.21.
The result for “AAATTTATAAAGAACACACACATATAAATATAAATA [CACACA_site6174]” reads 9.98; that for “TTATATATTTATATATGTACACATTTTACCATTTTT [XGTACX_site2142]”, 9.3.
For the sequence “TATATTCATAATATTACACACGTTCATTTATTTTAA [CACACA_site2031]”, the “gcPBM binding intensity (ln)” value is 9.5.
Next, “GAGTGAAATATGCAAACACACACGAGAAAAATGTAT [CACACA_site3196]”: 9.66; “TATGGTTTTAAAAAATGTACGCAAGTGCGTTAATTT [XGTACX_site3945]”: 9.
The result for “AACAACCAAACGCACACACACAAAAAAAAAAATATA [CACACA_site6326]” reads 9.87; that for “TTATATGCATAAAAAGGTACACATATATAAATAAAT [XGTACX_site6894]”, 9.44; that for “ACATTTAAAATTTATGCATGTGGTGTTTTGTATATA [TGCATGCA_site534]”, 9.65.
The result for “TAATAAAATGTACACGCATGCAATAGAATATAAAGT [TGCATGCA_site905]” reads 9.71; that for “TTTGTGTAGGTGTGTAGTACATATAACTTATAACAT [XGTACX_site7885]”, 9.56.
